The experiment deals with Plasmodium falciparum. Description: Primary screen in NF54 nanoGlo assay, in single point, at 2uM, 72h; a lower Z score goes with more inhibition. The format is functional, Erythrocyte. The following applies: timepoint 72 hour.

Here are results for 42 compounds from ChEMBL document CHEMBL4888484, “Replenishing the malaria drug discovery pipeline: Screening and hit evaluation of the MMV Hit Generation Library 1 (HGL1) against asexual blood stage Plasmodium falciparum ,using a nano luciferase reporter read-out” (2022).

Structures are written as SMILES. Values joined by “and” are separate entries in the source; they are usually repeats but may differ in a detail not shown here. Identical values can stand only once. Screen size: about 150,000 compounds; about 540 (0.36%) showed an effect of 50% or more. The list shows a part of the results.

Take `O=C(Nn1c(-c2ccccc2)nc2ccccc2c1=O)c1ccco1`: the % Inhibition – broadly, the drop in the measured response relative to a control, in per cent – is recorded as -18% and the Z score came to 2.64.

As to `O=C(NCc1ccc(OC(F)F)cc1)C1CC2CCC1C2` (centres undefined), the “% Inhibition” value was -3% and the Z score is on record as 0.6.

With `CC(C)[C@H]1CCO[C@H]1C(=O)NCc1cccc(-c2ncc[nH]2)c1`, the “% Inhibition” value was -13% and the Z score came out at 2.05.

On to `O=S(=O)(NCCCc1nnc2ccccn12)N1CCCCC1`, for which the “% Inhibition” value was 10% and the Z score is -1.35.

In the case of `CO[C@@H](C)C(=O)N1CCC2(CCC(=O)N(CCc3c[nH]cn3)C2)CC1`, the “% Inhibition” value is -2% and the Z score amounted to 0.34.

As for `CCc1ccc(-c2n[nH]c(=O)c3c2CCCC3)cc1S(=O)(=O)N1CCN(Cc2ccccc2)CC1`, the “% Inhibition” value is 7% and the Z score is given as -0.87.

Consider `O=C(N1CCOCC1)N1CCCN(c2cccc(F)c2F)CC1`, for which the “% Inhibition” value is -10% and the Z score was found to be 1.46.

Consider `CC(C)c1cc(C(=O)N2CCC3CCCCC32)nn1C` (centres undefined), for which the “% Inhibition” value was -4% and the Z score amounted to 0.57.

Regarding `O=C(NCCCc1cnc2ncnn2c1)c1ccoc1`, the “% Inhibition” value is listed as -5% and the Z score is on record as 0.96.

For `NC1CCC(C(=O)N2CCOC(c3cc(F)c(Cl)cc3Cl)C2)C1` (centres undefined), the “% Inhibition” value is -18% and the Z score is recorded as 2.47.

With `CC(C)(C)N(Cc1ccccn1)C(=O)c1ccc(F)cn1`, the “% Inhibition” value was -11% and the Z score came out at 1.46.

Turning to `CCOc1cccc(CNC(=O)c2cn3c(n2)CN(CC)CC3)c1`, the “% Inhibition” value is given as -2% and the Z score amounted to 0.33.

Consider `Cc1csc(NC(=O)c2ccc(-n3cccn3)nn2)n1`, for which the “% Inhibition” value is -5% and the Z score is recorded as 1.01.

On to `O=C(CNCc1cccc(Cl)c1)N1CCc2ccccc2C1`, for which the “% Inhibition” value is -8% and the Z score was 0.79.

`CNC(=O)c1cnc(C=Cc2csc(-c3ccco3)n2)s1`: the “% Inhibition” value is on record as -14% and the Z score stood at 2.22.

As for `CCn1c(=O)sc2cc(NC(=O)c3ccc(C)cc3)ccc21`, the “% Inhibition” value is 5% and the Z score is recorded as -0.91.

Regarding `CCCc1nnsc1C(=O)NC1CCCC(OC(=O)Nc2ccccc2)C1` (centres undefined), the “% Inhibition” value was -7% and the Z score turned out to be 1.28.

Take `COc1cnc(N2CCC3(CC2)[C@H](O)C[C@@H]3OCCO)nc1`: the “% Inhibition” value worked out at 1% and the Z score is -0.25.

Take `C=C[C@H]1CCN(C(=O)c2n[nH]c(=O)c3ccccc23)C1`: the “% Inhibition” value is given as -11% and the Z score turned out to be 2.34.

Consider `Cc1cnc(NC(=O)N2CCC3CCC(C2)N3C(C)C)s1` (centres undefined), for which the “% Inhibition” value is given as -5% and the Z score turned out to be 0.67.

As to `CCCC1(C)C(=O)NCCN1C(=O)CC1CCCCO1` (centres undefined), the “% Inhibition” value is listed as -13% and the Z score is on record as 1.14.

`Cc1nn(Cc2ccccc2)c(Cl)c1C(=O)NCC1(c2ccc(Cl)cc2)CCOCC1`: the “% Inhibition” value stood at 2% and the Z score is recorded as -0.29.

For `C#CCN(C(=O)NC(C)(C)C)C1CCCC1`, the “% Inhibition” value is on record as -2% and the Z score is 0.28.

In the case of `Cc1cc(C)nc(N/C(=N/c2ccccc2)NC(=N)NC(=O)c2ccccc2)n1`, for the setting “2 µM”, the “% Inhibition” value is -10% and -5%; the Z score was 1.08 and 0.81.

`COc1ccc(NC(=O)c2ccc(COc3ccc4c(c3)[C@H](c3ccc(F)cc3)N(C(=O)C(C)C)CC4)o2)cc1`: the “% Inhibition” value is reported as -11% and the Z score is 1.9.

As to `Cc1n[nH]c(C)c1CC(=O)NC1CCCC(c2ccccc2)C1` (centres undefined), the “% Inhibition” value worked out at 1% and the Z score is on record as -0.18.

Turning to `COc1ccc(Cl)cc1C1(CNC(=O)N2C[C@H](C)OC(C)(C)C2)CCOCC1`, the “% Inhibition” value is given as -7% and the Z score was 1.22.

On to `CCn1ccc(C(=O)NCc2cc3n(n2)CCN(C2CCCCC2)C3)cc1=O`, for which the “% Inhibition” value is 0% and the Z score is reported as 0.08.

Regarding `CCCS(=O)(=O)N1CCC[C@@H]1Cc1noc(-c2cnccn2)n1`, the “% Inhibition” value is recorded as -6% and the Z score was 0.9.

As to `Cc1nc[nH]c1CN1CCC2(CC1)C[C@H](c1ccccc1)C(=O)N2C`, the “% Inhibition” value is reported as -1% and the Z score came out at 0.27.

With `CN(C)C(=O)NCCNC(=O)c1ccc(Cl)s1`, the “% Inhibition” value is -5% and the Z score is reported as 0.59.

On to `CCn1ccc(C(=O)N2CCc3cc4ccc3[C@@H]2c2cccc(c2)OCCCNC(=O)c2cc(ccc2O)O4)cc1=O`, for which the “% Inhibition” value is 7% and the Z score is listed as -1.26.

Turning to `C[C@@]1(c2ccc(Cl)s2)NC(=O)N(Cc2cccc(F)c2F)C1=O`, the “% Inhibition” value is on record as -10% and the Z score is on record as 0.87.

`Cc1ccc(Cl)cc1NC(=O)C/C(N)=N/O`: the “% Inhibition” value is given as -8% and the Z score was determined as 1.03.

Turning to `O=C(O)c1cc(NS(=O)(=O)c2ccc(Cl)s2)ccc1N1CCC(N2CCCCC2)CC1`, the “% Inhibition” value is recorded as -7% and the Z score is given as 0.7.

For the compound `CCCS(=O)(=O)NC(=O)c1cccc(F)c1F`, the “% Inhibition” value was 0% and the Z score is recorded as -0.05.

For the compound `CCn1cc(NS(=O)(=O)c2cc(C(=O)O)cc3c2CCCC3)cn1`, the “% Inhibition” value amounted to 6% and the Z score is -1.15.

For `O=C(CCn1ccnn1)N1CCc2cc(Br)cc(F)c21`, the “% Inhibition” value is on record as -3% and the Z score amounted to 0.37.

For the compound `COc1cc(N(CC(C)C)C(=O)c2ccc(C#N)cn2)ccn1`, the “% Inhibition” value is 1% and the Z score was -0.16.

In the case of `COc1ccc(-c2cnc3ncnn3c2N2CCN(Cc3ccc(C(C)(C)C)cc3)CC2)cc1`, the “% Inhibition” value was -4% and the Z score was found to be 0.41.

For `CC(C)n1cccc1C(=O)Nc1ccccc1OC[C@H]1CCCO1`, the “% Inhibition” value is -7% and the Z score was determined as 1.32.

Regarding `O=C(NCc1ccccn1)c1nc(Cn2cc(Cl)cn2)no1`, the “% Inhibition” value was found to be 3% and the Z score was -0.35.
